{"source": "patent US20240382552A1", "about": "“COMPOSITION FOR PREVENTING, AMELIORATING OR TREATING SLEEP DISORDER OR INSOMNIA, CONTAINING EXTRACT OF ROASTED CITRUS BYPRODUCT AS ACTIVE INGREDIENT” (priority 2021, published 2024)", "test_system": "mice to which a sleeping dose of pentobarbital (45 mg/kg, i.p.) was administered", "assay": "Pentobarbital-induced sleep test", "conditions": "vicenin 50 mg/kg p.o. (tested at 6.25, 12.5, 25 or 50 mg/kg)"}
{"smiles": "O=c1cc(-c2ccc(O)cc2)oc2c([C@@H]3O[C@H](CO)[C@@H](O)[C@H](O)[C@H]3O)c(O)c([C@@H]3O[C@H](CO)[C@@H](O)[C@H](O)[C@H]3O)c(O)c12", "note": "[vicenin]", "values": [{"measurement": "sleep duration-increasing effect", "value": "sleep duration-increasing effect"}, {"measurement": "sleep latency-decreasing effect", "value": "significant sleep latency-decreasing effect"}]}
